# In the supplement of paper PMC8728848:
# The list shows a part of the results.
# Legend:
# Test in all cases: glycan array binding signal (z-score within array); higher = stronger binding
# Details in all cases: glycan notation: IUPAC condensed, linker removed
# [1] = target: Fuc(a1-2)[GalNAc(b1-3)]Gal
# Method in brief: (§1)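 The Consortium for Functional Glycomics database supplied 3228 glycan arrays, of which those lacking an available protein sequence were dropped. The binding signal, a within-array Z-score, was averaged across arrays of the same protein sequence and across linkers. Negative scores can be read as non-binding.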
# Fuc(a1-3)GlcNAc = target: Fuc(a1-3)GlcNAc
# Method in brief: as §1
# [2] = target: Fuc(a1-3)[Gal(b1-4)]Glc6S
# Method in brief: as §1
# [3] = target: Fuc(a1-3)[Gal(b1-4)]GlcNAc
# Method in brief: as §1
# [4] = target: Fuc(a1-3)[Gal(b1-4)]GlcNAc(b1-2)Man
# Method in brief: as §1
# [5] = target: Fuc(a1-3)[Gal(b1-4)]GlcNAc(b1-2)Man(a1-3)[Fuc(a1-3)[Gal(b1-4)]GlcNAc(b1-2)Man(a1-6)]Man(b1-4)GlcNAc(b1-4)GlcNAc
# Method in brief: as §1
# [6] = target: Fuc(a1-3)[Gal(b1-4)]GlcNAc(b1-2)Man(a1-3)[Fuc(a1-3)[Gal(b1-4)]GlcNAc(b1-2)Man(a1-6)]Man(b1-4)GlcNAc(b1-4)[Fuc(a1-6)]GlcNAc
# Method in brief: as §1
# [7] = target: Fuc(a1-3)[Gal(b1-4)]GlcNAc(b1-3)Gal(b1-3)[Fuc(a1-4)]GlcNAc
# Method in brief: as §1
# [8] = target: Fuc(a1-3)[Gal(b1-4)]GlcNAc(b1-3)Gal(b1-4)[Fuc(a1-3)]GlcNAc
# Method in brief: as §1
# [9] = target: Fuc(a1-3)[Gal(b1-4)]GlcNAc(b1-3)Gal(b1-4)[Fuc(a1-3)]GlcNAc(b1-3)Gal(b1-4)[Fuc(a1-3)]GlcNAc
# Method in brief: as §1
# [10] = target: Fuc(a1-3)[Gal(b1-4)]GlcNAc(b1-3)GalNAc
# Method in brief: as §1
# [11] = target: Fuc(a1-3)[Gal(b1-4)]GlcNAc(b1-6)GalNAc
# Method in brief: as §1
# [12] = target: Fuc(a1-3)[Gal(b1-4)]GlcNAc(b1-6)[Gal(b1-3)GlcNAc(b1-3)]Gal(b1-4)Glc
# Method in brief: as §1
# [13] = target: Fuc(a1-3)[Gal(b1-4)]GlcNAc6S
# Method in brief: as §1
# [14] = target: Fuc(a1-3)[Gal3S(b1-4)]Glc
# Method in brief: as §1
# [15] = target: Fuc(a1-3)[Gal3S(b1-4)]GlcNAc
# Method in brief: as §1
# [16] = target: Fuc(a1-3)[Gal3S(b1-4)]GlcNAc6S
# Method in brief: as §1
# [17] = target: Fuc(a1-3)[GalNAc(b1-4)]GlcNAc
# Method in brief: as §1
# [18] = target: Fuc(a1-3)[GalNAc(b1-4)]GlcNAc6S
# Method in brief: as §1
# Fuc(a1-4)GlcNAc = target: Fuc(a1-4)GlcNAc
# Method in brief: as §1
# Fuc(b1-3)GlcNAc = target: Fuc(b1-3)GlcNAc
# Method in brief: as §1
# Gal(a1-2)Gal = target: Gal(a1-2)Gal
# Method in brief: as §1
# Gal(a1-3)Gal = target: Gal(a1-3)Gal
# Method in brief: as §1
# Gal(a1-3)Gal(b1-3)GlcNAc = target: Gal(a1-3)Gal(b1-3)GlcNAc
# Method in brief: as §1
# [19] = target: Gal(a1-3)Gal(b1-3)GlcNAc(b1-2)Man
# Method in brief: as §1
# [20] = target: Gal(a1-3)Gal(b1-3)GlcNAc(b1-2)Man(a1-3)[Gal(a1-3)Gal(b1-3)GlcNAc(b1-2)Man(a1-6)]Man(b1-4)GlcNAc(b1-4)GlcNAc
# Method in brief: as §1
# [21] = target: Gal(a1-3)Gal(b1-3)GlcNAc(b1-3)GalNAc
# Method in brief: as §1
# [22] = target: Gal(a1-3)Gal(b1-3)GlcNAc(b1-6)GalNAc
# Method in brief: as §1
# [23] = target: Gal(a1-3)Gal(b1-3)[Fuc(a1-4)]GlcNAc(b1-2)Man(a1-3)[Gal(a1-3)Gal(b1-3)[Fuc(a1-4)]GlcNAc(b1-2)Man(a1-6)]Man(b1-4)GlcNAc(b1-4)GlcNAc
# Method in brief: as §1
# Gal(a1-3)Gal(b1-4)Glc = target: Gal(a1-3)Gal(b1-4)Glc
# Method in brief: as §1
# Gal(a1-3)Gal(b1-4)GlcNAc = target: Gal(a1-3)Gal(b1-4)GlcNAc
# Method in brief: as §1
# [24] = target: Gal(a1-3)Gal(b1-4)GlcNAc(b1-2)Man
# Method in brief: as §1
# [25] = target: Gal(a1-3)Gal(b1-4)GlcNAc(b1-2)Man(a1-3)[Gal(a1-3)Gal(b1-4)GlcNAc(b1-2)Man(a1-6)]Man(b1-4)GlcNAc(b1-4)GlcNAc
# Method in brief: as §1
# [26] = target: Gal(a1-3)Gal(b1-4)GlcNAc(b1-3)GalNAc
# Method in brief: as §1
# [27] = target: Gal(a1-3)Gal(b1-4)GlcNAc(b1-6)GalNAc
# Method in brief: as §1
# [28] = target: Gal(a1-3)Gal(b1-4)[Fuc(a1-3)]GlcNAc
# Method in brief: as §1
# [29] = target: Gal(a1-3)Gal(b1-4)[Fuc(a1-3)]GlcNAc(b1-2)Man(a1-3)[Gal(a1-3)Gal(b1-4)[Fuc(a1-3)]GlcNAc(b1-2)Man(a1-6)]Man(b1-4)GlcNAc(b1-4)GlcNAc
# Method in brief: as §1
# Gal(a1-3)GalNAc = target: Gal(a1-3)GalNAc
# Method in brief: as §1
# [30] = target: Gal(a1-3)[Gal(a1-4)]Gal(b1-4)GlcNAc
# Method in brief: as §1
# [31] = target: Gal(a1-4)Gal(b1-3)GlcNAc(b1-2)Man(a1-3)[Gal(a1-4)Gal(b1-3)GlcNAc(b1-2)Man(a1-6)]Man(b1-4)GlcNAc(b1-4)GlcNAc
# Method in brief: as §1
# Gal(a1-4)Gal(b1-4)Glc = target: Gal(a1-4)Gal(b1-4)Glc
# Method in brief: as §1
# Gal(a1-4)Gal(b1-4)GlcNAc = target: Gal(a1-4)Gal(b1-4)GlcNAc
# Method in brief: as §1
# [32] = target: Gal(a1-4)Gal(b1-4)GlcNAc(b1-2)Man(a1-3)[Gal(a1-4)Gal(b1-4)GlcNAc(b1-2)Man(a1-6)]Man(b1-4)GlcNAc(b1-4)GlcNAc
# Method in brief: as §1
# [33] = target: Gal(a1-4)Gal(b1-4)GlcNAc(b1-3)Gal(b1-4)Glc
# Method in brief: as §1
# Gal(a1-4)GlcNAc = target: Gal(a1-4)GlcNAc
# Method in brief: as §1
binder,measurement,setting,value
DC-ASGPR S+GEE (Homo sapiens) (protein) MTRTYENFQYLENKVKVQGFKNGPLPLQSLLQRLRSGPCHLLLSLGLGLLLLVIICVVGFQNSKFQRDLVTLRTDFSNFTSNTVAEIQALTSQGSSLEETIASLKAEVEGFKQERQAVHSEMLLRVQQLVQDLKKLTCQVATINNNGEEASTEGTCCPVNWVEHQDSCYWFSHSGMSWAEAEKYCQLKNAHLVVINSREEQNFVQKYLGSAYTWMGLSDPEGAWKWVDGTDYATGFQNWKPGQPDDWQGHGLGGGEDCAHFHPDGRWNDDVCQRPYHWVCEAGLGQTSQESH,glycan array binding signal (z-score),[1],4
same,glycan array binding signal (z-score),Fuc(a1-3)GlcNAc,-0.215
same,glycan array binding signal (z-score),[2],-0.337
same,glycan array binding signal (z-score),[3],-0.327
same,glycan array binding signal (z-score),[4],-0.257
same,glycan array binding signal (z-score),[5],-0.015
same,glycan array binding signal (z-score),[6],-0.294
same,glycan array binding signal (z-score),[7],-0.299
same,glycan array binding signal (z-score),[8],-0.391
same,glycan array binding signal (z-score),[9],-0.091
same,glycan array binding signal (z-score),[10],-0.321
same,glycan array binding signal (z-score),[11],2.2
same,glycan array binding signal (z-score),[12],-0.352
same,glycan array binding signal (z-score),[13],-0.315
same,glycan array binding signal (z-score),[14],-0.322
same,glycan array binding signal (z-score),[15],-0.308
same,glycan array binding signal (z-score),[16],-0.333
same,glycan array binding signal (z-score),[17],2.8
same,glycan array binding signal (z-score),[18],1.66
same,glycan array binding signal (z-score),Fuc(a1-4)GlcNAc,-0.265
same,glycan array binding signal (z-score),Fuc(b1-3)GlcNAc,-0.094
same,glycan array binding signal (z-score),Gal(a1-2)Gal,-0.304
same,glycan array binding signal (z-score),Gal(a1-3)Gal,-0.277
same,glycan array binding signal (z-score),Gal(a1-3)Gal(b1-3)GlcNAc,-0.245
same,glycan array binding signal (z-score),[19],-0.314
same,glycan array binding signal (z-score),[20],-0.415
same,glycan array binding signal (z-score),[21],-0.224
same,glycan array binding signal (z-score),[22],4.91
same,glycan array binding signal (z-score),[23],-0.197
same,glycan array binding signal (z-score),Gal(a1-3)Gal(b1-4)Glc,-0.323
same,glycan array binding signal (z-score),Gal(a1-3)Gal(b1-4)GlcNAc,-0.348
same,glycan array binding signal (z-score),[24],-0.458
same,glycan array binding signal (z-score),[25],-0.323
same,glycan array binding signal (z-score),[26],-0.313
same,glycan array binding signal (z-score),[27],3.92
same,glycan array binding signal (z-score),[28],-0.331
same,glycan array binding signal (z-score),[29],-0.257
same,glycan array binding signal (z-score),Gal(a1-3)GalNAc,-0.118
same,glycan array binding signal (z-score),[30],-0.299
same,glycan array binding signal (z-score),[31],-0.409
same,glycan array binding signal (z-score),Gal(a1-4)Gal(b1-4)Glc,-0.124
same,glycan array binding signal (z-score),Gal(a1-4)Gal(b1-4)GlcNAc,-0.216
same,glycan array binding signal (z-score),[32],-0.323
same,glycan array binding signal (z-score),[33],-0.361
same,glycan array binding signal (z-score),Gal(a1-4)GlcNAc,-0.343
